Measurements published in the supplement of paper PMC3334620.
In all, about 33,000 sequences were measured (“E-score (-0.5 to 0.5)”: median about -0.013, highest 2% from about 0.3 on). Some of the results follow.

molecular target: T1, Msn1 (UniProt P22148); assay: PBM E-score (8-mer binding enrichment) (E-score (-0.5 to 0.5)); higher = stronger / more preferred TF binding; most listed sequences are background and not binding sites; conditions: protein concentration: 200 nM; construct: GST-full length
T1 sequence: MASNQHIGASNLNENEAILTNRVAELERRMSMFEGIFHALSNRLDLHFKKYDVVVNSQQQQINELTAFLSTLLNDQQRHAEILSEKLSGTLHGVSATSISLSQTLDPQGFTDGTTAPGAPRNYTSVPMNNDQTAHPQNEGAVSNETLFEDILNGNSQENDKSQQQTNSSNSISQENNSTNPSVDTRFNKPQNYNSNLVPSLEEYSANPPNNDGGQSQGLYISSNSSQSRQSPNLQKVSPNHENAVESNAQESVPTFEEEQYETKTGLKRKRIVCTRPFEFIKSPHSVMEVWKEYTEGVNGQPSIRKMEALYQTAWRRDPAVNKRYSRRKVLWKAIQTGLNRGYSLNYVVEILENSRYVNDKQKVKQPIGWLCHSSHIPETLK
Summary of the method: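 Using PURExpress in vitro transcription/translation, GST-tagged yeast transcription factors were made in full-length or DNA-binding-domain form. These were applied at about 100-200 nM to double-stranded universal all-10-mer Agilent arrays, and bound protein was detected with fluorescent anti-GST. Scans were normalised with masliner before the Universal PBM Analysis Suite assigned E-scores to ungapped eight-base words pooled with their reverse complements.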

Sequence	PBM E-score
AAGGGCAG	-0.102
CGACTTAC	-0.00648
GGATTGGA	0.0131
CATATAGC	0.0969
CGCCACCA	-0.333
ATGGTTAC	0.00793
GCGTAACC	-0.0548
ACGAGTGC	-0.0619
ACTAAACC	0.0221
CCCACCTA	-0.135
ATCGGCTA	-0.0302
TATAACGA	-0.0116
CAGAATCC	0.102
CCGTTGAA	0.00808
TCTGGTAA	0.177
GAGAGGCA	-0.188
AGGCACCG	-0.156
CCACACCA	0.075
CGTGGCAA	-0.135
TCATTTAA	0.132
CGATAGTC	0.198
AGAACTCT	-0.119
GTACCGAC	0.0868
GTCGCCAC	-0.173
AAGTAAAC	-0.0142

Sequence	PBM E-score
ATGGATAC	-0.108
AAACAAAG	0.0504
AATCGCAA	0.0437
AGTACGGG	-0.0729
TAAGCTAA	0.238
CTTTCGGC	0.0124
CCTTCGTA	-0.16
CACATCTG	-0.154
ATACCGGC	0.0363
CTGTTTAA	0.0247
AGCAGGCG	0.0269
CGGGCCGC	-0.0688
GACGTTGA	-0.0706
GCACAGGC	-0.114
CAGACGGC	-0.207
TACAAAAA	0.264
AACATTAG	-0.0152
CGTCACAC	-0.0547
CCCTCCAC	-0.092
CAGCAGGG	-0.274
CGTGACTC	-0.0728
ATCAAAAA	0.214
GATATCCA	0.0655
ATAAGACG	-0.105
ACCGCGCG	0.114

Sequence	PBM E-score
TATCCTGA	0.0592
ACAACTGG	0.0262
TTCTAGAA	0.00769
ACGGGTCC	0.0102
ATTACCAG	-0.0811
ACATCTCA	0.115
GAAATACA	-0.0197
GTGGTCAA	-0.188
CGAGATAC	0.182
CTCTGGGA	-0.112
AGTGGGCA	-0.00096
AGTCCACC	0.0587
AAGAAGAG	-0.019
GCGACGCA	0.0716
TGTACTAA	0.321
ACCATGGA	-0.00474
GCGTGGAC	0.172
CGTGTCTA	0.166
ACGCGAAC	0.0104
AGCTTTTA	-0.0221
CGGGCTAC	0.18
CTAACTGA	0.0193
GATCAATA	-0.0199
CAAGTAGC	-0.00336
ATAATTCG	0.0794

Sequence	PBM E-score
CGTCCACG	0.155
AGAAACTA	-0.0608
CTCAGCTA	-0.0867
TATGAGAA	0.0684
AGGAACAT	0.104
CGGTGCAA	-0.136
CTCACCAG	-0.105
ACCAAGTC	0.0143
TGCCGCAA	0.106
CAATTCAC	0.0172
TGAGCACA	-0.0787
ACGTACCT	-0.0473
CCTCACGC	0.0345
AATTCCGT	0.162
CCCCGACA	0.105
ACGCATGA	0.0653
CGAGTATC	-0.121
GCGCCAGC	-0.173
ATCCCGGA	0.194
CAACCAGC	-0.114
ACAGGGGG	-0.471
AAATGGAT	-0.0165
AGGAGCGC	-0.207
GGCTGATA	-0.0273
GAATTACC	0.0764

Sequence	PBM E-score
GGCTGCCC	-0.215
GTACGGAC	0.261
ACGAGCGG	-0.176
CCGGTTGA	-0.0935
GGGGATTA	-0.228
TGCAAAAA	0.105
ATCGTGGC	-0.139
ATTTCTCG	0.255
AATAGCAT	0.109
AGCTCTGA	-0.158
AGACGACC	-0.182
AGCGACCT	-0.0614
GCTAGTCC	0.215
AATTCTCA	0.0796
AAAGAAAG	0.0461
AGGTGGAG	-0.147
GAAACAAA	0.186
CTAGCTAG	0.0713
CGATGCGA	-0.147
GAAGTTCA	-0.00825
AACCGCGC	0.0302
ACTTTCGC	0.0997
AACCAGGT	-0.0554
AGGGCCGC	-0.0735
ATCGAACC	-0.0171

Sequence	PBM E-score
ACAACTCG	0.21
ACAGTACC	-0.0814
AGCATACC	-0.0756
CCAAAAGC	0.0259
CAGGCATC	-0.0274
AGGATTAT	-0.0424
GCCTTATA	-0.0588
AATGATCT	0.191
CGGATGGA	0.0989
CGTCAAAG	0.038
CCTTATAA	0.0581
GTGTGGGA	0.0637
CGAAAACG	0.146
CATTCATC	-0.00585
TCAGCGGA	0.0824
AATATGTG	0.181
CACAGTCA	-0.0378
ACGTACCC	-0.0327
CATTTACC	0.201
AGCATGAG	-0.0774
CGTTTCAG	0.176
ACCGCGGT	0.107
AGGTAGAT	-0.0882
CCCTTCCG	-0.277
ATATATCC	0.195

Sequence	PBM E-score
CATTAGGA	0.064
TATTAAAA	0.236
GAAGACTC	0.048
GGTCGTAC	-0.126
GGGTGGAA	-0.224
GTGCTGAA	-0.191
ACCGACGA	0.0949
GTCCCGAC	0.191
TACCAGTA	0.116
ATATCGGC	0.149
CTATCCTC	-0.167
GGAAGTAC	-0.136
CATGGGCC	-0.163
GACGTCGC	-0.165
CCCAACTC	-0.0737
CAAGGTTC	-0.0921
GACAAGAA	0.374
AAAACCTT	-0.197
CCGAGATC	0.0634
CAGAACCA	-0.0963
AAAAGATG	0.0869
GATCGTAA	0.114
ACGCATTG	-0.0899
ATTAGAAT	0.0939
AACGCGAT	-0.0845

Sequence	PBM E-score
CTGCAAAA	0.0838
CGCCAGAG	-0.148
ATTACAGC	-0.151
AAACGAGG	-0.0812
ACCGCTAG	-0.0798
AACTTGTC	0.391
CAGTAGCG	-0.0401
TAACTCGA	0.16
CTAGGTAA	-0.141
ACACGTGA	0.108
TATATTAA	0.232
ACTGCGAC	0.0372
CACCTGCC	-0.202
ACAGAATC	0.0712
AGATGTAT	-0.0433
ACCTGGTG	-0.32
AAAGGAGT	-0.084
GACTGAAC	-0.0291
CGTCAGGA	-0.0453
GATGTACA	0.2
AATCGCGG	-0.0441
GGTCCAAC	-0.0461
ATCGAGGC	-0.0295
AATGGATA	-0.0648
AACTTTCG	-0.0271

Sequence	PBM E-score
ACGCCCGC	-0.0536
GATGACAC	0.06
CAACGATG	-0.0474
GTGGGCCA	-0.0613
CATCGTCA	0.0515
GTTCAGCA	-0.0288
AGGAAAAG	0.0156
CCCTCTGA	-0.174
GTCTGTCA	0.181
CTCTAGAG	-0.256
ACTGTTAA	0.0626
CCCTTTAC	-0.168
AAAAAGTA	0.173
AACAGTAA	0.013
AATCTGCG	0.0799
ACTAGAGT	-0.0625
ACAGCTCT	-0.242
TGTTGCAA	0.0681
ATAGAGAG	-0.195
